Measured values as given in publication PMC6212790.
The other results are listed elsewhere or left out. At the low end of the ranking, values are background and their order means little.

Target: T1, GST-Rok (full length) (UniProt O34857)
T1 sequence: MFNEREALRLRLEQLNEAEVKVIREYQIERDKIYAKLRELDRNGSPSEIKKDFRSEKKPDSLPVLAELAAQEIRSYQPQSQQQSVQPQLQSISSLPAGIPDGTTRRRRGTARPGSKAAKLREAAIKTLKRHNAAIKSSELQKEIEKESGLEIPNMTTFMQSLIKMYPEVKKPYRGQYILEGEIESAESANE
Assay: protein binding microarray;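 also: rank score from −0.5 (least bound) to 0.5 (best bound)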
Settings: Rok is a gene silencer of Bacillus subtilis; high values mean tight binding; most listed sequences are background and not binding sites; double strand, one strand shown

Sequence	binding signal
ATAAGGTG	0.108 E-score
CTAGGCTA	-0.127 E-score
AGGTCGAA	-0.00683 E-score
AGTTCGAA	0.213 E-score
CGTGCGCA	-0.155 E-score
GGAAACGA	-0.156 E-score
CACGTCTA	-0.221 E-score
GGTATGCA	0.143 E-score
GCGACCTA	0.0632 E-score
CGAGTTCA	0.151 E-score
AATGGATA	0.117 E-score
GCCTTGGA	-0.271 E-score
CCACAGAA	0.0919 E-score
ACTGGAAC	0.102 E-score
ACTAACAG	0.0984 E-score
GAACGTAA	-0.0377 E-score
CTACCTAC	0.346 E-score
ATCTTCCA	0.0738 E-score
AGATAGCC	0.0431 E-score
GGGTATGA	0.0637 E-score
GAAACTCC	-0.0923 E-score
GCCCAACC	-0.287 E-score
CCTCAGCC	-0.314 E-score
CTCGGGGC	-0.169 E-score
GGTACTAC	0.212 E-score

Sequence	binding signal
CAATACTC	0.0708 E-score
AACACAGA	-0.0373 E-score
ACGCCCGT	-0.212 E-score
ACGAACTA	0.321 E-score
ACTAGAGG	-0.111 E-score
GAGTGGTA	0.283 E-score
CTGAATCA	-0.0874 E-score
AATGGAAG	-0.104 E-score
TGGTTTAA	-0.0708 E-score
GGAGCGGA	-0.237 E-score
GCGCTTTA	-0.22 E-score
ATTGCATG	0.232 E-score
ACTAGAGA	-0.0107 E-score
TATTATAA	0.191 E-score
ATTGACCC	-0.24 E-score
CCTCGTAA	0.111 E-score
AGCCGCAC	-0.163 E-score
CAACTCAG	0.0431 E-score
CGGCAGTA	-0.0498 E-score
ATGCGATG	0.158 E-score
CAACATTA	0.173 E-score
ACAGGTCC	-0.238 E-score
GAGGATCC	-0.0422 E-score
AAGGATGG	-0.0766 E-score
CGAAGTCC	-0.0686 E-score

Sequence	binding signal
GCGAGAAC	-0.0998 E-score
CCGAGCTA	-0.0443 E-score
CAGGTTCC	-0.216 E-score
TCACCCAA	0.222 E-score
ATTGGACG	0.0712 E-score
AGGCGCGA	-0.15 E-score
GAATCGTC	0.0347 E-score
CCATACGG	-0.189 E-score
GTCACTGA	-0.109 E-score
AAGATCGC	-0.0328 E-score
GGATTAGA	0.0143 E-score
AGACTAAT	0.167 E-score
CTTCCCAA	-0.198 E-score
AGTAGGGG	-0.205 E-score
AAGGTGAA	-0.115 E-score
GGTTTCGA	-0.238 E-score
CCGGTGCG	-0.29 E-score
ATAGCGAC	0.0894 E-score
GTGCGGGA	-0.198 E-score
GGACGTAA	0.0485 E-score
AAGGAAGC	-0.0428 E-score
GCCGGAGC	-0.322 E-score
ACTGTTAC	0.217 E-score
CAACATTG	0.117 E-score
TATGAATA	0.198 E-score

Sequence	binding signal
GAGAGGAA	-0.168 E-score
CAGGATGA	-0.2 E-score
CTTTATAA	0.0826 E-score
ATGGTCTA	0.0573 E-score
GACGAGAA	-0.207 E-score
GGCCCCGA	-0.282 E-score
AGAAGTCA	-0.0141 E-score
CCAGCTGA	-0.0708 E-score
GCCCCCGA	-0.304 E-score
CACAAATG	-0.0865 E-score
CCTCGGCA	-0.378 E-score
GGTACTCA	0.0512 E-score
GCAACCAA	0.153 E-score
AAACTTCG	0.00691 E-score
CGATAAAC	0.125 E-score
ACTTAACG	0.0884 E-score
CCTGTGTC	-0.121 E-score
TCTCTAAA	-0.0574 E-score
GCAGTACA	0.187 E-score
ACAAAAAA	0.113 E-score
TCACCAAA	0.0724 E-score
CGCCGCTC	-0.284 E-score
GGCCAACC	-0.192 E-score
ATACGAGA	0.082 E-score
GGGTTTTA	-0.0464 E-score

Sequence	binding signal
CTGCAAAG	-0.147 E-score
ACCCCTTG	-0.176 E-score
AACTGCAG	0.212 E-score
CGCTCGGA	-0.343 E-score
CATAGAAC	0.0494 E-score
CTCCCTTA	-0.197 E-score
TAGTTAAA	0.12 E-score
ACCGGTTA	0.164 E-score
AACTCCGG	-0.0993 E-score
CTGTCATC	0.121 E-score
AGTATTAA	0.29 E-score
CCGCATAG	-0.119 E-score
AGTCGCCG	-0.16 E-score
AGTTAAGC	-0.0477 E-score
ACTCTTAA	0.0606 E-score
AGAGTTCC	0.0145 E-score
CTGGGAGA	-0.21 E-score
AGATTGAT	0.0811 E-score
TAGCCCAA	-0.0264 E-score
CGGTTCTC	0.0956 E-score
AATGAGGT	0.0415 E-score
ACACCCGT	-0.145 E-score
ATGAATGC	0.142 E-score
AACCGGTA	0.274 E-score
AGTCCACC	-0.238 E-score

Sequence	binding signal
TCTTGGCA	0.00716 E-score
CATAGAAA	0.129 E-score
CATTTCTA	0.288 E-score
GATCACAA	-0.275 E-score
GCAAATTA	0.218 E-score
TAACACGA	0.129 E-score
GAGAGCAA	-0.36 E-score
CCTTATGC	-0.115 E-score
ATCGATCC	0.0914 E-score
GTACGCAA	0.263 E-score
ATCCCATC	0.0128 E-score
CACGCCAG	-0.175 E-score
CATAGCCC	-0.102 E-score
AGACATGG	-0.0718 E-score
CGTTCTAA	0.0668 E-score
ACGATCGG	0.0558 E-score
CGCGCCTA	-0.0944 E-score
AAATACTT	0.259 E-score
CGAGGAGC	-0.324 E-score
ATTTCGTA	0.332 E-score
CATGCCTC	-0.202 E-score
ATTCATAG	0.279 E-score
AGGCCGGG	-0.361 E-score
CTCAGGCC	-0.293 E-score
GTCATCCA	-0.00614 E-score

Sequence	binding signal
ATCATGTG	0.0302 E-score
GGCTTCAA	-0.0517 E-score
TACTCCCA	-0.026 E-score
CCCATGAA	-0.00573 E-score
AATCGGTG	0.0554 E-score
CGCCCCCA	-0.167 E-score
GATTATGC	0.176 E-score
ACCAACAG	0.0502 E-score
CTTCGGAA	-0.149 E-score
CCCTAGCA	-0.156 E-score
AACGTGTA	-0.0386 E-score
CGAACTAA	0.109 E-score
CCCCCGGA	-0.467 E-score
AAGTCAGT	0.0615 E-score
AACACACA	0.0536 E-score
AGCTCGTC	-0.181 E-score
ATTGTTGA	0.0133 E-score
CCGATTCC	-0.251 E-score
AGGGATAG	-0.176 E-score
AGCCTTGC	-0.292 E-score
CTCAGAAG	-0.0826 E-score
ACGGGTAG	0.0412 E-score
GACACTAC	-0.0667 E-score
AACCATGT	-0.00971 E-score
CCTAGACA	-0.0491 E-score

Sequence	binding signal
AGCTCTCA	-0.12 E-score
CAGTGGTA	0.258 E-score
ACGCCCAT	-0.311 E-score
GATGGTGA	0.0154 E-score
GGGGAGAA	-0.197 E-score
AGGAGATA	0.0345 E-score
CCCGAAGC	-0.387 E-score
CAGCGCAG	-0.209 E-score
GTAGTTAA	0.431 E-score
CCTCAGCA	-0.202 E-score
GCCCTACC	-0.197 E-score
ACACATAT	0.192 E-score
CATTGCCG	-0.035 E-score
AGGGCACA	-0.209 E-score
AGGGGATC	-0.365 E-score
CACAAGGA	-0.124 E-score
CACTCCAG	-0.203 E-score
GTATCATA	0.153 E-score
CATCGGGG	-0.364 E-score
GGGGGGAA	-0.374 E-score
TGATACAA	0.306 E-score
CTGGTGCA	-0.0982 E-score
ATTCGAAG	0.09 E-score
CTGACCAC	-0.141 E-score
AGTTACTC	0.188 E-score

Sequence	binding signal
AATGGACT	-0.000336 E-score
CGATCTAG	0.214 E-score
AGCTAAGC	0.000675 E-score
ATGAAATG	0.0719 E-score
AAATAGTA	0.42 E-score
CAACAATG	0.0221 E-score
AATTCCAT	0.181 E-score
CAATCGGC	-0.115 E-score
ACACGTTA	0.067 E-score
CGAGGCAC	-0.132 E-score
CTGGCTCC	-0.398 E-score
ATCACTCG	-0.0286 E-score
GTGGAAAC	-0.137 E-score
CCAAGTGG	-0.0692 E-score
ACATTAGA	0.154 E-score
ATTCCATC	0.0755 E-score
GTGTTTGA	0.00176 E-score
AATAAGAT	0.218 E-score
AGTCCGAA	-0.104 E-score
